Some of the results follow.
Each sequence was assayed on PfHDP1 homeodomain (GST-tagged) (assay: gcPBM binding intensity (ln(normalized median fluorescence intensity)); higher = stronger DNA binding).
Outline: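 Binding intensity is defined as the maximum Masliner-normalised natural-log median intensity across replicate spots for either probe orientation. It was measured on an Agilent 4 × 180k array of primer-extended double-stranded 36-bp intergenic genomic probes and negative controls, to which GST-tagged P. falciparum DNA-binding domains made in E. coli were applied for 1 h in 1× PBS with 1% milk, 0.2 mg/ml BSA, 0.5% salmon testes DNA and 0.03% Triton X-100. Detection was by Alexa488 anti-GST antibody and scanning at 488 nm.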

Compared with “CGTAAACGATATAAATGTACGAATATCTATATATTA [XGTACX_site8116]”, “TATATATTGCCCTTCACACACACACCGATATATATA [CACACA_site5390]” is higher in “gcPBM binding intensity (ln)” value: 6.31 for the first, 7.47 for the second.

Compared with “TCGATTAAAACACAAAAATATAAATACATTGATAAA [TGCATGCA_negctrl_site523]”, “TTAAAAGTTATGGATACACACATATAAATATAGATT [CACACA_site7175]” is higher in “gcPBM binding intensity (ln)” value: 5.93 for the first, 6.32 for the second.

First: TTAATAAATATGTTTACACACGAAAATACATTTTTT [CACACA_site8245]
Second: ATTTTAATTTTTTAAGTATTATATGAATATTTATTA [TGCATGCA_negctrl_site142]
The “gcPBM binding intensity (ln)” value of the first is higher: 6.31 for the first, 5.81 for the second.

Compared with “CACACGCACGAACACACACACACACGCGCACATATA [CACACA_site6304]”, “ACATATATATATATATATATATATATATATTCTTAA [CACACA_negctrl_site930]” is lower in “gcPBM binding intensity (ln)” value: 8.54 for the first, 7.41 for the second.

Going from “TAATTTTCATAATTTTGTACTTAACGTTTTACCTTG [XGTACX_site8048]” to GTCTAAAAATAAAAAGTGCATTTGTTTAATATTTTG, the “gcPBM binding intensity (ln)” value rises from 6.32 to 9.16.

Compared with “ATTAAAACAAATATGTGTACATAAAAATATATATAT [XGTACX_site8394]”, “TATTATTATTATTATTTTAAAAGAAATAAAAATATG [XGTACX_negctrl_site119]” is lower in “gcPBM binding intensity (ln)” value: 7.82 for the first, 6.41 for the second.

First: TGATTGTATTAAAATGCACACATATCAAGAGGAATT [CACACA_site7985]
Second: TTAATTTTTTTTTTTTGTACTCATATGTAATTCATC [XGTACX_site3071]
The “gcPBM binding intensity (ln)” value of the first is higher: 9.97 for the first, 6.41 for the second.

Going from “TTTTATTATTCTTCTCTCTTATATATATATATATAT [CACACA_negctrl_site646]” to “TTTCAAAGGAAATGGTGTACACAATTTTTCCTTTTT [XGTACX_site2340]”, the “gcPBM binding intensity (ln)” value falls from 9.04 to 6.05.

Going from “ACTGTGGTATAAAGTTGTACATGTTTTTATATATTT [XGTACX_site5257]” to “TACTTTTATATGAATACACACAGGAATATATATATG [CACACA_site3568]”, the “gcPBM binding intensity (ln)” value rises from 6.41 to 6.63.

First: ATAACATAGGCAATCACACATATCATTAAGGTGTCA [CACACA_site5233]
Second: TTACTTTAACCTTCTCGTACTTATTTACTTTATTCT [XGTACX_site7801]
The “gcPBM binding intensity (ln)” value of the first is lower: 6.3 for the first, 7.08 for the second.

Compared with “AAAAGTTTAAGTTTTCGAAAATTTACCAAAAAAAAA [CACACA_negctrl_site1644]”, “GTGCATAAATCATACACACACACATATATAAATATA [CACACA_site7188]” is higher in “gcPBM binding intensity (ln)” value: 6.3 for the first, 7.31 for the second.

First: AAAGTTTTTATAAAAAAAAAAATAAATACCATATAT [XGTACX_negctrl_site113]
Second: GTGTTTTTATGTGAATGTACATATTTACTATCACAC [XGTACX_site2388]
The “gcPBM binding intensity (ln)” value of the first is lower: 6.5 for the first, 6.84 for the second.
